# This is one part of the list.
# B1: Epa1-NP-mutant-E227G (Candida glabrata), Q6VBJ0 (protein)
# chain: MILNPALFLNKCVCIYTTLILLLLTNGGYATSSNDISLASKDPTTFPLGCSPDITTPKKGLSMELYSYDFRKKGSYPCWDAAYLDPNYPRTGYKSHRLLAKVDGVTGNINFYYHATKGCTPQLGHLPASYNYPKPLTMTNFTMLLYGYFRPKVTGFHTFTISADDLLFVNFGAGNAFDCCRRDSSADHFGNYQAYAIWGSKTAKDELTVHLDAGVYYPIRLFYNNRGYDGALSFTFKTESNENTVSDFSEYFFSLDDTEEGCPGLISYDSSCASVKTSKIIGIDYHTETPNENLVPITKTIYHLGIPCTGTTTTPLCGSGFYDPLANKCVTINTSSTSSVTKTTSHTTSKEVSFHSSISSQKTLIPKSIPSPYGPIKSQSIPTEMETSSEISSSEYAFSDVISTPSHSPYTKKHSSLNSSSYTSTVIHSLTSYSISQGIFSTSLSEQNITSKSSTDKFSTATSMSNNITQSSIIISQFSTNNENYTTTSMHTSSDKISTETLNNSISTTTSILFSNSSTILKNNTTIISSDKDTHYHPVNPTIVCSTNKTEIICASITQPSISNSNNHWSSSVLKFNSTTVRSTLPSSAGSNETSINVPFSSSTESNTSTSSTSTSNSKMVRSTLPSSAGSNETSISVPFSSSTESNTSTSSTSTSNSKMVRSTLPSSAGSNETSINVPFSSSTESNTSTSSTSTSNSKTVRSTPFSSAGIIMTSLSQRNNKSASSYASSNSKCYNTADSCRKVHSTPSYLLTSSYTSEGVDYDCSLVSTKLKINDTNCVNNKHTTKSCLKTSVTTTIPTLEIKTARKSSSNTIGLHSYPTSSPNKSISSAPIIGYISSFKTIKTASPSYQTSDLTTITTITSLNNPGSTAVENTHESNDKSRKTSSNDISSKHSVIKETKDAVESSNKSHQTNTLKCSSIIIASSSHNSYESLGGTTLTLTLSKVYSPQNNDTLPFLEISEVNPSRTVLPESSKMMQYLTSTEERNKTARNTIATNIVSISTFHFEGEGNAIRMGYTQLLLMLIGIIVMNIGT
# Key:
# Assay in all cases: glycan array binding signal (z-score within array); higher = stronger binding
# Details in all cases: glycan notation: IUPAC condensed, linker removed; mutation: E227G
# [1] = target: Fuc(a1-2)Gal(b1-4)GlcNAc(b1-3)Gal(b1-4)GlcNAc(b1-2)Man(a1-3)[Fuc(a1-2)Gal(b1-4)GlcNAc(b1-3)Gal(b1-4)GlcNAc(b1-2)Man(a1-6)]Man(b1-4)GlcNAc(b1-4)GlcNAc
# Outline: (§1)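 The Consortium for Functional Glycomics database supplied 3228 glycan arrays, of which those lacking an available protein sequence were dropped. The binding signal, a within-array Z-score, was averaged across arrays of the same protein sequence and across linkers. Negative scores can be read as non-binding.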
# [2] = target: Fuc(a1-2)Gal(b1-4)GlcNAc(b1-3)Gal(b1-4)GlcNAc(b1-3)Gal(b1-4)GlcNAc
# Outline: as §1
# [3] = target: Fuc(a1-2)Gal(b1-4)GlcNAc(b1-3)GalNAc
# Outline: as §1
# [4] = target: Fuc(a1-2)Gal(b1-4)GlcNAc(b1-3)[Fuc(a1-2)Gal(b1-4)GlcNAc(b1-6)]GalNAc
# Outline: as §1
# [5] = target: Fuc(a1-2)Gal(b1-4)GlcNAc(b1-3)[Fuc(a1-3)[Gal(b1-4)]GlcNAc(b1-6)]Gal(b1-4)Glc
# Outline: as §1
# [6] = target: Fuc(a1-2)Gal(b1-4)GlcNAc(b1-6)GalNAc
# Outline: as §1
# [7] = target: Fuc(a1-2)Gal(b1-4)GlcNAc6S
# Outline: as §1
# [8] = target: Fuc(a1-2)Gal(b1-4)[Fuc(a1-3)]GlcNAc
# Outline: as §1
# [9] = target: Fuc(a1-2)Gal(b1-4)[Fuc(a1-3)]GlcNAc(b1-2)Man(a1-3)[Fuc(a1-2)Gal(b1-4)[Fuc(a1-3)]GlcNAc(b1-2)Man(a1-6)]Man(b1-4)GlcNAc(b1-4)[Fuc(a1-6)]GlcNAc
# Outline: as §1
# [10] = target: Fuc(a1-2)Gal(b1-4)[Fuc(a1-3)]GlcNAc(b1-2)[Fuc(a1-2)Gal(b1-4)[Fuc(a1-3)]GlcNAc(b1-4)]Man(a1-3)[Fuc(a1-2)Gal(b1-4)[Fuc(a1-3)]GlcNAc(b1-2)Man(a1-6)]Man(b1-4)GlcNAc(b1-4)GlcNAc
# Outline: as §1
# [11] = target: Fuc(a1-2)Gal(b1-4)[Fuc(a1-3)]GlcNAc(b1-3)Gal(b1-4)[Fuc(a1-3)]GlcNAc
# Outline: as §1
# [12] = target: Fuc(a1-2)Gal(b1-4)[Fuc(a1-3)]GlcNAc(b1-3)Gal(b1-4)[Fuc(a1-3)]GlcNAc(b1-3)Gal(b1-4)[Fuc(a1-3)]GlcNAc
# Outline: as §1
# [13] = target: Fuc(a1-2)Gal(b1-4)[Fuc(a1-3)]GlcNAc(b1-3)GalNAc
# Outline: as §1
# [14] = target: Fuc(a1-2)Gal(b1-4)[Fuc(a1-3)]GlcNAc(b1-3)[Neu5Ac(a2-6)Gal(b1-4)GlcNAc(b1-6)]Gal(b1-4)Glc
# Outline: as §1
# [15] = target: Fuc(a1-2)Gal3S(b1-4)GlcNAc
# Outline: as §1
# [16] = target: Fuc(a1-2)Gal6S(b1-3)GlcNAc
# Outline: as §1
# [17] = target: Fuc(a1-2)Gal6S(b1-3)GlcNAc6S
# Outline: as §1
# [18] = target: Fuc(a1-2)Gal6S(b1-4)Glc
# Outline: as §1
# [19] = target: Fuc(a1-2)Gal6S(b1-4)Glc6S
# Outline: as §1
# [20] = target: Fuc(a1-2)[Gal(a1-3)]Gal
# Outline: as §1
# [21] = target: Fuc(a1-2)[Gal(a1-3)]Gal(b1-3)GalNAc
# Outline: as §1
# [22] = target: Fuc(a1-2)[Gal(a1-3)]Gal(b1-3)GalNAc(b1-3)Gal(a1-4)Gal(b1-4)Glc
# Outline: as §1
# [23] = target: Fuc(a1-2)[Gal(a1-3)]Gal(b1-3)GlcNAc
# Outline: as §1
# [24] = target: Fuc(a1-2)[Gal(a1-3)]Gal(b1-3)GlcNAc(b1-2)Man(a1-3)[Fuc(a1-2)[Gal(a1-3)]Gal(b1-3)GlcNAc(b1-2)Man(a1-6)]Man(b1-4)GlcNAc(b1-4)GlcNAc
# Outline: as §1
# [25] = target: Fuc(a1-2)[Gal(a1-3)]Gal(b1-3)GlcNAc(b1-2)Man(a1-3)[Fuc(a1-2)[Gal(a1-3)]Gal(b1-3)GlcNAc(b1-2)Man(a1-6)]Man(b1-4)GlcNAc(b1-4)[Fuc(a1-6)]GlcNAc
# Outline: as §1
# [26] = target: Fuc(a1-2)[Gal(a1-3)]Gal(b1-3)GlcNAc(b1-3)GalNAc
# Outline: as §1
# [27] = target: Fuc(a1-2)[Gal(a1-3)]Gal(b1-3)GlcNAc(b1-6)GalNAc
# Outline: as §1
# [28] = target: Fuc(a1-2)[Gal(a1-3)]Gal(b1-4)Glc
# Outline: as §1
# [29] = target: Fuc(a1-2)[Gal(a1-3)]Gal(b1-4)GlcNAc
# Outline: as §1
# [30] = target: Fuc(a1-2)[Gal(a1-3)]Gal(b1-4)GlcNAc(b1-2)Man
# Outline: as §1
binder,measurement,setting,value
B1,glycan array binding signal (z-score),[1],-0.141
same,glycan array binding signal (z-score),[2],-0.178
same,glycan array binding signal (z-score),[3],-0.026
same,glycan array binding signal (z-score),[4],-0.236
same,glycan array binding signal (z-score),[5],-0.2
same,glycan array binding signal (z-score),[6],-0.259
same,glycan array binding signal (z-score),[7],0.533
same,glycan array binding signal (z-score),[8],-0.207
same,glycan array binding signal (z-score),[9],-0.014
same,glycan array binding signal (z-score),[10],-0.117
same,glycan array binding signal (z-score),[11],-0.253
same,glycan array binding signal (z-score),[12],-0.34
same,glycan array binding signal (z-score),[13],0.012
same,glycan array binding signal (z-score),[14],-0.129
same,glycan array binding signal (z-score),[15],-0.143
same,glycan array binding signal (z-score),[16],-0.206
same,glycan array binding signal (z-score),[17],-0.141
same,glycan array binding signal (z-score),[18],-0.15
same,glycan array binding signal (z-score),[19],-0.035
same,glycan array binding signal (z-score),[20],-0.147
same,glycan array binding signal (z-score),[21],-0.175
same,glycan array binding signal (z-score),[22],-0.092
same,glycan array binding signal (z-score),[23],-0.168
same,glycan array binding signal (z-score),[24],-0.086
same,glycan array binding signal (z-score),[25],0.101
same,glycan array binding signal (z-score),[26],-0.164
same,glycan array binding signal (z-score),[27],-0.212
same,glycan array binding signal (z-score),[28],0.031
same,glycan array binding signal (z-score),[29],-0.081
same,glycan array binding signal (z-score),[30],-0.2

# From the supplement of paper PMC8728848
